# Among all 94,000 compounds or so, about 4,000 (4.3%) were called active. Inconclusive results, whose numbers are uncertain, are shown with a selection of clear calls. Calls follow the shape of the dose curve; as a rule, active = well fitted inhibition curve with a large enough effect; inconclusive = small, poorly fitted or top-dose-only effect; inactive = no such curve, though single readings can be large or run the other way. Where the call is inconclusive, the potency comes from a doubtful curve fit.
# Experiment: Cytotoxic Profiling in NIH 3T3 Cell Line of Diverse Libraries Using Quantitative High-Throughput Screening; also: nearly all actives have a fitted effect of over 55% in size
# Details: NIH 3T3 viability, CellTiter-Glo ATP luminescence, 48-72 h; activity change, negative = cytotoxicity: at 96.7 µM (top of the series) unless noted; series mostly up to 96.7 µM
# Summary of the method: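 NIH 3T3 cells at 400 cells/well received 23 nL of compound by pintool and were incubated 48 or 72 h at 37 °C. Viability was read as ATP-coupled CellTiter-Glo luminescence.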
# % is scaled to controls: 0 for no effect and ±100 for the full control effect; potency is read from the fitted curve at half-maximal effect; tags tell the direction and shape of the fitted curve.
SMILES,Potency,"activity change, negative = cytotoxicity",outcome
OCC1CCN(c2ccc(-c3nc(CCCc4ccccc4)no3)cn2)CC1,"inconclusive: 50.1 µM [inhibitor, partial curve, poor fit]",–,–
COCC1CN(Cc2cccc(C(F)(F)F)c2)CC12CCNCC2 (configuration not stated),"inconclusive: 50.1 µM [inhibitor, partial curve, poor fit]",–,–
C[C@@]1(O)CCN(C(=O)c2ccc(-c3ccco3)cc2)C[C@@H]1O,–,inactive: 0.937%,–
C=CCN1C[C@@H]2C[C@@H](C(=O)OCC)N(C(=O)c3ccc(C)cc3)c3cccc(c32)C1=O,"inconclusive: 35.5 µM [inhibitor, single point]",–,–
COc1cccc(CN2CCCC(C(=O)NCc3ccccc3)CCNC(=O)CC2)c1 (configuration not stated),–,inactive: -0.893%,–
Cc1ccccc1-c1cnc2[nH]cc(CC(=O)NC3CCOCC3)c2c1,"inconclusive: 89.1 µM [inhibitor, partial curve, poor fit]",–,–
Cc1ccc(CNC(=O)[C@H]2CCC[C@H]2NC(=O)c2ccncc2)o1,"inconclusive: 79.4 µM [inhibitor, partial curve, poor fit]",–,–
CN1CCCC1c1nc(C2CN(C(=O)c3cccn3C)C2)no1 (configuration not stated),–,–,inactive
CCCN(CC1CC1)C(=O)c1ccc2c(c1)C(O)CCCCCN2CCOC (configuration not stated),"inconclusive: 39.8 µM [inhibitor, partial curve, poor fit]",–,–
COCc1ccc2c(c1)c(OC(C)(C)C(=O)Nc1ccc(OC)cc1)nn2Cc1cccnc1,"inconclusive: 50.1 µM [inhibitor, partial curve, poor fit]",–,–
O=C(CCNc1cnc2cnccn12)NCc1ccc(F)c(Cl)c1,"inconclusive: 44.7 µM [inhibitor, partial curve]",–,–
O=C(Nc1ccccc1)C1CN(S(=O)(=O)c2cccnc2)CC12CCCCC2 (configuration not stated),–,inactive: -17.4%,–
CCOC(=O)c1cccc(NC(=O)c2c(OCC)cc(=O)n3c2CCCC3)c1,"inconclusive: 44.7 µM [inhibitor, partial curve, poor fit]",–,–
O=C(C1CCCN(c2cnn(Cc3ccccc3)c(=O)c2)C1)N1CCCC1 (configuration not stated),"inconclusive: 50.1 µM [inhibitor, single point]",–,–
CN1CCN(C(=O)N2Cc3ccccc3OC3(CCN([S+](C)(=O)[O-])CC3)C2)CC1,"inconclusive: 126 µM [inhibitor, single point]",–,–
CC(=O)N1CCC(Nc2cc(-c3ccc(Cl)cc3)nc3c(C)noc23)CC1,"inconclusive: 22.4 µM [inhibitor, full curve, poor fit]",–,–
COc1ccc(C(=O)N2CCC(N3C[C@H](Oc4ccccc4)[C@@H]3c3ccncc3)CC2)cc1,"inconclusive: 44.7 µM [inhibitor, partial curve, poor fit]",–,–
